# According to PubChem BioAssay AID686978 (National Center for Advancing Translational Sciences (NCATS), 2013):
# Among all 420,000 compounds or so, about 64,000 (15%) were called active. Inconclusive means that the source gave no clear call. Such entries were picked first, then a sample of the others. The call rests on the fitted dose curve; in most records, active means well fitted inhibition curve with a large enough effect; inconclusive means small, poorly fitted or top-dose-only effect; inactive means flat fitted curve, though single readings scatter. Potencies of inconclusive entries are left out as doubtful fits.
# Experiment: qHTS for Inhibitors of human tyrosyl-DNA phosphodiesterase 1 (TDP1): qHTS in cells in absence of CPT; further: nearly all actives have a fitted effect of over 55% in size
# Conditions: DT40 Tdp1-/- hTDP1 cells, no CPT, ATP luminescence, 48 h; activity change, negative = growth inhibition: at 46.2 µM (top of the series) unless noted
# How it was run: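 Luminescent ATP content (CellTiter-Glo) served as the growth readout. Knockout chicken DT40 cells expressing human TDP1 were exposed to compounds without camptothecin for a minimum 48 hr at 37 °C.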
# On the % scale 0 is the no-effect control and ±100 the full control effect; potency means the concentration at half of the fitted maximal effect; tags describe the fitted curve by direction and shape.
Compound,Potency,"activity change, negative = growth inhibition"
COc1ccc(C(=O)N2C=Cc3ccccc3C2C(N)=O)cc1 (stereo unspecified),"inconclusive [inhibitor, single point]",–
Cc1c(O)ccc(C(=O)CN2CCN(c3ccccc3F)CC2)c1O,active: 23.1 µM,–
CC(C)(C)c1ccc(S(=O)(=O)/C=C/C#N)cc1,active: 0.562 µM,–
COc1ccc(/C=N/NC(=O)Cn2c(Cc3ccc(OC)c(OC)c3)nc3ccccc32)cc1,–,inconclusive: -30.9% [inhibitor]
CC(C)NC(NC(=O)/C=C/c1ccccc1)C(Cl)(Cl)Cl (stereo unspecified),"inconclusive [inhibitor, single point]",–
Cc1cc2c(cc1NS(=O)(=O)c1ccc(Br)cc1)n(C)c(=O)c(=O)n2C,"inconclusive [inhibitor, partial curve]",–
CN(C(=O)c1cccc(NC(=O)Cc2cccc(NC(=O)C3CCN(C(=O)C4CCCC4)CC3)c2)c1)C1CCC1,"inconclusive [inhibitor, single point]",–
CC(C)c1ccccc1OCC(=O)Nc1cc(S(=O)(=O)N2CCOCC2)ccc1N1CCCC1,active: 14.6 µM,–
CC(=O)c1c(C)[nH]c(C(=O)OCc2ccccc2)c1C,active: 20.6 µM,–
CCOC(=O)C(C(=O)N(C)Cc1ccccc1)C1CCCCC1 (stereo unspecified),"inconclusive [inhibitor, partial curve]",–
O=C(CC12CCC(CC1)C2)NCc1ccc2c(c1)OCO2,–,inactive: -4.86%
CCNc1nc(Oc2ccc(C(=O)OCC)cc2)nc(SC)n1,"inconclusive [inhibitor, partial curve]",–
CC(C)CC(COCc1ccc(F)cc1)N1CCN(C(=O)c2cccc(C(F)(F)F)c2)CCC1=O (stereo unspecified),"inconclusive [inhibitor, single point]",–
CCCCN1C(=O)C(CC(=O)NCc2cccc3ccccc23)CC(C(=O)N2CCOCC2)=C1C (stereo unspecified),–,inactive: 7.3%
CCCSCCCNC(=O)c1ccc(C)c(NC(=O)c2nsc3ccccc23)c1,"inconclusive [inhibitor, single point]",–
CC(C)C[C@@H](COCc1ccc(F)cc1)N1CCN(C(=O)c2cccc(C(F)(F)F)c2)CCC1=O,"inconclusive [inhibitor, single point]",–
COc1cc(/C=C2\SC(=S)N(NC(=O)c3cccc(O)c3)C2=O)ccc1O,active: 23.1 µM,–
COc1ccc(-c2coc3c(C(=O)NCc4ccco4)cccc23)c(C)c1,"inconclusive [inhibitor, single point]",–
COc1cccc(Cn2nc(SC)c(S(=O)(=O)c3ccccc3)c2N(C(C)=O)C(C)=O)c1,"inconclusive [inhibitor, single point]",–
CCOc1ccccc1CN1CCNC(=O)C1CC(=O)N(C)Cc1nonc1C (stereo unspecified),–,inactive: 1.04%
O=C(NC(CSCc1ccccc1)C(=O)N/N=C/c1ccc(O)cc1O)c1ccc([N+](=O)[O-])cc1 (stereo unspecified),active: 4.47 µM,–
O=C1Nc2ccccc2O/C1=C\c1ccccc1,–,inactive: 3.16%
Cc1cc(CN2CCCC(C(=O)Nc3ccc(-c4nc5ccccc5[nH]4)cc3)C2)n[nH]1 (stereo unspecified),"inconclusive [inhibitor, single point]",–

Compound,Potency,"activity change, negative = growth inhibition"
Cc1cccc(C)c1NC(=O)CN1CCCC1,inactive,–
O=C(c1ccco1)N1CCC2(CC1)CCN(c1cccc(-c3ccccc3)c1)CC2,"inconclusive [inhibitor, single point]",–
COc1ccc(N(C(=O)CNC(=O)c2cccs2)C(C(=O)NC2CCCC2)c2ccncc2)cc1 (stereo unspecified),–,inactive: 21.5%
COc1ccc(-c2cc(C(=O)Nc3cc(C)on3)c3ccccc3n2)c(OC)c1,active: 9.2 µM,–
Cc1ccc(-c2nn(-c3ccc(F)cc3)cc2C(=O)N2CCN(C3CCS(=O)(=O)C3)CC2)cc1 (stereo unspecified),–,inactive: -26.1%
c1cc(-c2noc(CCC3CCCC3)n2)ccn1,"inconclusive [inhibitor, partial curve]",–
Cc1csc2ncc(C(=O)NCCc3ccccc3)c(=O)n12,"inconclusive [inhibitor, single point]",–
Cc1nc2cc(Nc3nnc(-c4ccccc4)c4ccccc34)ccc2n1C,"inconclusive [inhibitor, partial curve]",–
CCCc1nc(SCC(=O)c2ccc3c(c2)NC(=O)CO3)[nH]c(=O)c1CC,"inconclusive [inhibitor, single point]",–
Cc1ccc(NNC(N)=S)cc1Cl,"inconclusive [inhibitor, single point]",–
CCOC(=O)c1ccccc1NC(=O)CSc1nc2c(sc(=S)n2CC)c(=O)[nH]1,–,inactive: 16.5%
Nc1nnnn1CC(=O)N/N=C/c1ccc(-c2cccc(Cl)c2)o1,–,inactive: -20.2%
Oc1c(Br)cc(/C=N/Nc2ccc(Cl)nn2)cc1Br,"inconclusive [inhibitor, single point]",–
Cc1ccc(C2c3[nH]c4ccccc4c3C[C@H]3C(=O)N(c4ccccc4C(=O)NCCN4CCOCC4)C(=O)N23)cc1 (stereo partly specified),–,inactive: -90.8%
CCc1ccc(NC(=O)C2CCN(S(=O)(=O)c3ccc4c(c3)NC(=O)CO4)CC2)cc1,"inconclusive [inhibitor, single point]",–
Cc1occc1C(=O)NCc1cccc(CNC(=O)c2ccoc2C)c1,"inconclusive [inhibitor, single point]",–
CC1CCN(S(=O)(=O)c2ccc3[nH]cc(C(=O)NCCN4CCOCC4)c(=O)c3c2)CC1,–,inconclusive: -34.8% [inhibitor]
COc1cc2c(cc1OC)-c1nncn1C(C)(C)C2,–,inactive: -10.4%
CC1CC(C)CN(C(=O)COC(=O)CCC(=O)c2cccs2)C1 (stereo unspecified),"inconclusive [inhibitor, full curve]",–
CC(OC(=O)c1ccc([N+](=O)[O-])s1)C(=O)NC1CCCCC1C (stereo unspecified),"inconclusive [inhibitor, single point]",–
Cc1cc(C)cc(NC(=O)CN2CCN(c3ccccc3)CC2)c1,–,inconclusive: -30.8% [inhibitor]
Cc1ccc2nc(Nc3ccc(C)c(C)c3)c3nncn3c2c1,active: 20.6 µM,–
Cn1nc(-c2ccccc2F)c2cc(C(=O)NCc3ccccc3Cl)sc21,"inconclusive [inhibitor, single point]",–
